Measurements as given in the supplement of paper PMC3334620.
In all, about 33,000 sequences were measured (“E-score (-0.5 to 0.5)”: median about -0.04, highest 2% from about 0.36 on). The list shows a part of the results.

These sequences were tested against T1, Hmlalpha2 (UniProt P0CY09) (assay: PBM E-score (8-mer binding enrichment) (E-score (-0.5 to 0.5)); higher = stronger / more preferred TF binding; most listed sequences are background and not binding sites). Settings: protein concentration: 200 nM; construct: GST-full length.
T1 sequence: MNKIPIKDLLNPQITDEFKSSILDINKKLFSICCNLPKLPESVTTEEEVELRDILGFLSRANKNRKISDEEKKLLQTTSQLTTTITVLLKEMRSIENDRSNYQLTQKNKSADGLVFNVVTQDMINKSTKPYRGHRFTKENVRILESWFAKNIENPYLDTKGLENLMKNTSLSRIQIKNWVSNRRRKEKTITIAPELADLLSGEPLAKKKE
Procedure: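 Universal 'all 10-mer' protein binding microarrays (Agilent AMADID 015681) probed with GST-tagged S. cerevisiae TFs (full-length or DBD) made by in vitro transcription/translation (PURExpress), about 100-200 nM. Bound TF was detected with fluorescent anti-GST. Each ungapped 8-mer (which stands for itself and its reverse complement) is scored by the PBM enrichment score (E-score), a modified Wilcoxon-Mann-Whitney statistic from -0.5 to +0.5, computed with the Universal PBM Analysis Suite. Scale: above 0.35 generally sequence-specific binding.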

Sequence	PBM E-score
ACGATCTA	0.0859
CTGGACCC	-0.305
GATCGCAC	0.141
ACTCAAGC	-0.0469
ACTGGTCG	-0.202
GACAGCAA	-0.177
CATTGCCC	-0.291
ATGTTAAA	0.473
ACGGATGG	-0.11
GCCTCATA	-0.312
ACGAGGGC	-0.131
AGGGCGAG	-0.195
AGTAATCC	0.181
CCCTGATA	-0.282
GAAGAGTC	0.166
CTGATTCA	0.0122
CAGTTGGA	-0.2
CGTCGATA	0.116
ATCAAAAC	0.0781
GACTATCA	-0.101
AAAGGCTC	-0.223
ACCTCTTA	0.0621

Sequence	PBM E-score
TCTCACAA	-0.0754
ATCGCAAC	-0.04
AATGAGCT	-0.0972
AATATGCA	-0.0317
ATCAGACC	-0.123
GGAAGTCC	-0.303
GATGTAGC	-0.0783
CACGAGGC	0.0563
CGGCAAAA	-0.11
GCAAAAGC	0.0892
CGGTCGTA	-0.332
CAAGGTAG	-0.11
ACGAGGCA	0.11
GGGGTCCA	-0.276
CAGGAGGC	-0.267
GCCATCGA	-0.104
AACTAAAC	0.0711
CGCCGGAG	-0.168
ATCTAAAT	0.11
CTTCGGTC	0.0585
CTTTCGCA	-0.0307
ATCGTGAC	-0.0005

Sequence	PBM E-score
GCTTAGTA	0.152
ATTCTCGA	0.018
CAATTACC	0.0295
CCATAGTA	-0.0457
AGTGAACG	-0.0185
CTGCTACC	-0.131
ACTCCTTG	-0.033
AAATACGA	0.231
ACGCTACC	-0.172
AGAGGCCC	-0.341
ATTTTATC	0.144
AGCGATTC	-0.186
GAGGTTAA	0.061
GCCAACCC	-0.205
CCTGCGCA	-0.292
GCCTAAAA	-0.118
ATCGAAAC	-0.0565
GTACCAAC	0.199
CAGGCCCA	-0.135
ACGCTGAC	0.0606
TACATCGA	0.177
ATCGGGTA	-0.101

Sequence	PBM E-score
CTTACGCC	0.0948
CCAGTTCG	-0.131
AGGAATCC	-0.178
ACGCGTTG	0.341
GCTGTTAA	0.262
CAGTGACG	-0.0973
CCGTCCTA	-0.147
ACAGCTAT	0.0847
CATCGACC	-0.213
GAATGATA	0.0352
AAAACTCA	0.14
ACGGCACT	-0.102
CGTGTGAG	0.138
GCATTTTA	0.0743
TATGAAGA	0.0275
AAGCAATT	0.0992
AGATGTGA	-0.0114
CATGTTTA	0.437
CTCTTCTC	-0.254
CCCAGGCG	-0.0902
